This is an account of results in ChEMBL document CHEMBL4888484, “Replenishing the malaria drug discovery pipeline: Screening and hit evaluation of the MMV Hit Generation Library 1 (HGL1) against asexual blood stage Plasmodium falciparum ,using a nano luciferase reporter read-out” (2022).

Out of some 150,000 compounds screened, about 540 (0.36%) showed an effect of 50% or more. Some of the results follow.

This test relates to Plasmodium falciparum. The test is described as follows: Primary screen in NF54 nanoGlo assay, in single point, at 2uM, 72h; a lower Z score goes with more inhibition. The note with it: timepoint 72 hour. It counts as functional, Erythrocyte.
Usually % Inhibition stands for the relative decrease from the control value, in per cent. For the compound `CN(CC(=O)Nc1ccc(Cl)cc1)C(=O)CCC1CCCC1`, the “% Inhibition” value is recorded as -1% and the Z score is recorded as 0.08.

As to `C=CCN(c1ccccc1OC)S(=O)(=O)c1cccc(C(=O)Nc2ccc(N3CCOCC3)c(S(=O)(=O)Nc3ccc(Cl)cc3)c2)c1`, the “% Inhibition” value is -7% and the Z score came out at 1.07.

In the case of `CC[C@H]1CN(C(=O)c2c[nH]c(C(F)(F)F)c2)CCCO1`, the “% Inhibition” value is -3% and the Z score was 0.48.

For `CCC(=O)c1c[nH]c(C(=O)NCc2cccnc2)c1`, the “% Inhibition” value is -2% and the Z score stood at 0.29.

Turning to `CCOCCCNC(=O)Nc1nnc(N(C)Cc2ccccc2)s1`, the “% Inhibition” value is -7% and the Z score amounted to 1.09.

Regarding `CN1C[C@@H](NC(=O)Cn2c(C3CC3)nc3ccccc32)C[C@H]1C(=O)O`, the “% Inhibition” value is listed as -3% and the Z score is 0.45.

`Cc1cccc(NC(=O)c2cc3nccc(-c4ccc(F)cc4)n3n2)c1`: the “% Inhibition” value is -14% and the Z score came to 1.77.

Turning to `CCCN1CCn2c1nc(COC)cc2=O`, the “% Inhibition” value is recorded as -4% and the Z score amounted to 0.81.

On to `CC(C)Nc1c(Cl)cccc1NCC(=O)N[C@@H](C)C(=O)N(C)C`, for which the “% Inhibition” value was -10% and the Z score is reported as 1.23.

`CC[C@@](NC(=O)Cc1cccc(C)c1)(C(N)=O)C(C)C`: the “% Inhibition” value is listed as -2% and the Z score amounted to 0.21.

On to `COc1ccccc1C(=O)/N=C(/Nc1ccccc1)C(Cl)(Cl)Cl`, for which the “% Inhibition” value is -8% and the Z score is 1.31.

As to `COc1cccc(C(=O)N2CCN(C(=O)Cn3nnnc3CN3CCCC3)CC2)c1`, the “% Inhibition” value was -18% and the Z score is 1.57.

Consider `CCc1cnccc1C(=O)N(Cc1ccccn1)c1ccncc1`, for which the “% Inhibition” value is reported as -11% and the Z score is listed as 1.51.

`O=C(NCc1ccc(Cl)s1)N[C@H]1CCCC12CCOCC2`: the “% Inhibition” value is given as -18% and the Z score came out at 1.58.

Take `CN(CC(=O)NC1CC1)c1ncnc2cc(Cl)ccc12`: the “% Inhibition” value is given as -5% and the Z score is 0.55.

In the case of `CCN(C)C(=O)[C@H]1CN(C(=O)OC(C)(C)C)C[C@@H]1C(=O)N(C)CC`, the “% Inhibition” value was -9% and the Z score amounted to 0.84.

Take `c1nc(OCC2CCN(c3ncnc4[nH]cnc34)CC2)cc(C2CC2)n1`: the “% Inhibition” value turned out to be 4% and the Z score is given as -0.67.

In the case of `O=C(Nc1nnc2ccccn12)c1ccc(CNC(=O)c2cccs2)cc1`, the “% Inhibition” value was -15% and the Z score is 1.48.

`CN1CCN(C(=O)C[C@H]2Cn3ncc(-c4ccc(Cl)cc4)c3NC2=O)CC1`: the “% Inhibition” value is -10% and the Z score is listed as 1.84.

Regarding `CCCN(C)S(=O)(=O)NCC1CCCC1O` (centres undefined), the “% Inhibition” value is -10% and the Z score is listed as 0.98.

Turning to `Cc1ccc(C[C@H](CO)CNC(=O)c2cc(C)c(C)o2)cc1`, the “% Inhibition” value is reported as -11% and the Z score came out at 1.43.

With `Cc1csc(CN2CCN(S(C)(=O)=O)[C@@H](C)C2)n1`, the “% Inhibition” value worked out at 5% and the Z score is -0.78.

Consider `CCNc1nc(C)c(C(=O)N2C[C@H]3CC=CC[C@H]3C2)s1`, for which the “% Inhibition” value is given as -11% and the Z score came out at 1.06.

For `CC(=O)c1ccccc1C(=O)NC1CCCC1C` (centres undefined), the “% Inhibition” value is given as 39% and the Z score is reported as -3.95.

Regarding `CN1C(=O)CN(C(=O)c2cc(C3CC3)nn2C)c2ccccc21`, the “% Inhibition” value is recorded as -16% and the Z score came out at 2.02.

For `O=C(Nc1ccccc1-c1cc(F)c(F)c(F)c1)N1CC[C@@H](O)C1`, the “% Inhibition” value is listed as -18% and the Z score is 2.07.

Take `O=C(NCc1ccon1)[C@@H]1CC(Cc2cccc3ccccc23)=NO1`: the “% Inhibition” value is -8% and the Z score is 1.44.

For the compound `Cc1cc(F)ccc1OC1(C(=O)O)CCN(C(=O)CCC2CC2)CC1`, the “% Inhibition” value is -5% and the Z score is given as 0.88.

Take `COC(=O)c1ccccc1NCc1ccc2c(c1)OCCO2`: the “% Inhibition” value is reported as -4% and the Z score is reported as 0.53.

With `CCc1ccc(NC(=O)N(Cc2ccccc2)Cc2cccn2Cc2ccc(Cl)cc2)cc1`, the “% Inhibition” value is -4% and the Z score worked out at 0.78.

On to `Cc1cc(NC(=O)c2ccco2)n(-c2nc3c(cnn3-c3ccc(Cl)cc3)c(=O)[nH]2)n1`, for which the “% Inhibition” value is on record as -12% and the Z score came to 2.26.

As to `Cc1ccn2nc(C(=O)N3CCC[C@H](N)C3)cc2c1`, the “% Inhibition” value was -12% and the Z score is listed as 1.65.

`COC(=O)C1CC(Oc2ccccc2F)CN1C(=O)Nc1cccc(C)c1` (centres undefined): the “% Inhibition” value was -7% and the Z score stood at 1.3.

As for `CCCCOCCCNS(=O)(=O)c1ccc(NC(C)=O)cc1`, the “% Inhibition” value is recorded as -13% and the Z score was 2.45.

In the case of `COc1ccc(S(=O)(=O)Oc2ccccc2CN(C[C@H]2CCCO2)C(=O)NC(C)C)cc1`, the “% Inhibition” value was 2% and the Z score is listed as -0.21.

For the compound `CN1CCN2C(=O)N(Cc3ccc(F)cc3)C[C@H]2C1`, the “% Inhibition” value worked out at 15% and the Z score is -1.79.

As for `Cn1ccc2cc(S(=O)(=O)N3CCC[C@H](C(=O)NCCc4cccs4)C3)ccc21`, the “% Inhibition” value is listed as -21% and the Z score is on record as 3.9.

In the case of `O=C(Nc1cccc(F)c1)Nc1cccc(-c2nnc3n2CCCC3)c1`, the “% Inhibition” value is reported as -8% and the Z score turned out to be 0.77.

As for `Cc1noc(C)c1CCc1ncnn1C1Cc2ccccc2C1`, the “% Inhibition” value is given as -13% and the Z score was determined as 2.18.

For the compound `O=C(NC[C@@](O)(c1ccco1)C1CC1)c1ccco1`, the “% Inhibition” value is -12% and the Z score was found to be 2.02.

With `CCCCCOCC(=O)NCC1CC(=O)NC(C)C1` (centres undefined), the “% Inhibition” value is recorded as 6% and the Z score is on record as -1.21.

As for `Cc1sc(NC(=O)c2cccnc2)nc1-c1ccc2c(c1)NC(=O)[C@H](C)O2`, the “% Inhibition” value is given as -3% and the Z score turned out to be 0.43.
